In PubChem BioAssay AID360 (National Center for Advancing Translational Sciences (NCATS), 2006) one finds Potency data, which are given here for 89 molecules.

The whole screen tested about 48,000 compounds, of which about 550 (1.1%) were called active. Roughly 4% stayed inconclusive and do not appear here. Cut-off read from the data, not from the text of the source: active = potency below about 15 µM; inconclusive = mostly about 16 µM to 33 µM; inactive = weaker than that. This is one part of the list.
Potency is the fitted concentration of half-maximal effect.

Chain of UniProt P04062 (P04062 whole entry, looked up): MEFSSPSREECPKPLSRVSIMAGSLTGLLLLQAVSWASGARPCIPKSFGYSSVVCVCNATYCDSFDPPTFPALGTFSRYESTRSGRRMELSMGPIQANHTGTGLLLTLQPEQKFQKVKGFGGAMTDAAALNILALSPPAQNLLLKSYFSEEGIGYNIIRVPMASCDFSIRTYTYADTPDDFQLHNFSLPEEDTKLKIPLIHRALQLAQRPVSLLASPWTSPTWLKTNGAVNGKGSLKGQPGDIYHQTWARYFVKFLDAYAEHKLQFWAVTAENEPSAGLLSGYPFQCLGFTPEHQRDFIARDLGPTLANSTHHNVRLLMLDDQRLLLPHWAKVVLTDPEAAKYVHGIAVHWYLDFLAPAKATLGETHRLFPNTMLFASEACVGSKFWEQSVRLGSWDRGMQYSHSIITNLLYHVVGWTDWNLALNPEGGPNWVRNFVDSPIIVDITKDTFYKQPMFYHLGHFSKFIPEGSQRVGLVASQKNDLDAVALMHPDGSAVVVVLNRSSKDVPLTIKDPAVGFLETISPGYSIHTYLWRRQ

This assay has as its target Lysosomal acid glucosylceramidase (Homo sapiens) (UniProt P04062). Nature of the assay: Glucocerebrosidase.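 Note: the screen sought inhibitors.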 The settings on record: purified enzyme, resorufin glucoside fluorescence (screen aimed at inhibitors), 20 min. Summed up:
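Wild-type enzyme at 0.2 nM final in 50mM citric acid/KH2PO4, 10mM sodium taurocholate, 0.01% tween-20, pH 5.9, with resorufin beta-D-glucopyranoside at 30 uM final. Compounds titrated, 20 min at RT, red fluorescence read; AC50 from titration.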
On to `CCOC(=O)N1CCN(c2nc(C)c3c(n2)CCCC3=O)CC1`, for which the Potency was inactive: > 76.9 µM.

In the case of `O=C(CSc1ccc2c(c1)OCCO2)Nc1ccc(Cl)cn1`, the Potency is inactive: > 76.9 µM.

Take `CC(C)C(=O)Nc1nnc(SCC(=O)NCc2cccs2)s1`: the Potency is inactive: > 76.9 µM.

Regarding `Cc1ccc(NC(=O)c2oc3c(c2C)C(=O)CC(C)(C)C3)cc1`, the Potency was inactive: > 76.9 µM.

Turning to `O=C(CSc1nc2ccncc2[nH]1)Nc1ccccc1C(F)(F)F`, the Potency result was “inactive”.

`CCCNS(=O)(=O)c1ccc(OCC(=O)N2CCC(C(=O)OCC)CC2)cc1`: the Potency was inactive: > 76.9 µM.

As to `Cc1ccc(C(=O)n2cnnc2N)cc1C`, the Potency was inactive: > 76.9 µM.

As for `c1coc(Cn2nnnc2CN2CCN(C3CCCC3)CC2)c1`, the Potency is inactive: > 76.9 µM.

As for `CCOC(=O)c1oc2ccccc2c1NC(=O)c1cccc(OC)c1OC`, the Potency is inactive: > 76.9 µM.

Take `CC(=O)NC1(C(F)(F)F)C(=O)Nc2c1c(=O)[nH]c(=O)n2Cc1ccco1` (centres undefined): the Potency is inactive: > 76.9 µM.

As for `N#Cc1ccc2ccn(CC(=O)NCc3ccccc3)c2c1`, the Potency is inactive: > 76.9 µM.

`COCCNC(=O)C(c1cccs1)N(C(=O)Cn1nnc2ccccc21)c1ccccc1` (centres undefined): the Potency is inactive: > 76.9 µM.

On to `COCCNC(=O)CSc1nc2ccccc2c2nc(C)nn12`, for which the Potency is inactive: > 76.9 µM.

With `Cc1cc(NS(=O)(=O)c2ccc(NC(=O)CCCOc3ccccc3)cc2)no1`, the Potency is inactive: > 76.9 µM.

In the case of `CCOC(=O)c1cnc(SCc2ccccc2)nc1N`, the Potency is inactive: > 76.9 µM.

For the molecule `O=C(Nc1nnc(C23CC4CC(CC(C4)C2)C3)s1)c1ccco1`, the Potency was inactive: > 76.9 µM.

For `COCCCNc1nc2c(c(=O)[nH]c(=O)n2C)n1CCCc1ccccc1`, the Potency is inactive: > 76.9 µM.

Regarding `CC(C)(C)N1C(=O)c2ccc(C(=O)O)cc2C1=O`, the Potency was inactive: > 76.9 µM.

Consider `CCCC(=O)Nc1ccc(NC(=O)c2ccco2)c(OC)c1`, for which the Potency is inactive: > 76.9 µM.

For the molecule `CNC(=O)CN(c1cccc(Br)c1)S(C)(=O)=O`, the Potency was inactive: > 76.9 µM.

As for `CCOC(=O)c1ccc(N2C(=O)c3n[nH]c(C)c3C2c2ccc(O)cc2)cc1` (centres undefined), the Potency was inactive: > 76.9 µM.

As for `COC(=O)c1cccc(NS(=O)(=O)c2cccs2)c1C`, the Potency is inactive: > 76.9 µM.

On to `COc1ccc(CNc2nc(SCC(=O)NCc3ccco3)nc3ccccc23)cc1`, for which the Potency was inactive: > 76.9 µM.

Regarding `Cc1cccc(C)c1NC(=O)CSCCO`, the Potency is inactive: > 76.9 µM.

For `NC(=O)CSc1nnc(Cc2ccc3c(c2)OCO3)n1C1CCCCC1`, the Potency is inactive: > 76.9 µM.

As to `O=C(Nc1c(C(=O)N2CCOCC2)cnn1-c1ccccc1)c1ccco1`, the Potency is inactive: > 76.9 µM.

As for `CCOc1cc(S(=O)(=O)NCc2ccc3c(c2)OCO3)ccc1F`, the Potency was inactive: > 76.9 µM.

As to `O=C(O)CCC(=O)N1CCc2cc(S(=O)(=O)NCc3cccs3)ccc21`, the Potency is inactive: > 76.9 µM.

Turning to `CCn1c(=O)cc(OCC(=O)NCCCN2CC(C)CC(C)C2)c2ccccc21` (centres undefined), the Potency was inactive: > 76.9 µM.

Turning to `CCCn1nc(NS(C)(=O)=O)c2cc3cccc(C)c3nc21`, the Potency is inactive: > 76.9 µM.

Regarding `COC(=O)c1ccccc1NC(=O)CN1CCC(NC(=O)c2ccccc2C)CC1`, the Potency was inactive: > 76.9 µM.

`CC(=O)c1c(N2CCOCC2)nc(=S)n(-c2cc(C)ccc2C)c1C`: the Potency is inactive: > 76.9 µM.

In the case of `CC(Oc1ccc(Br)cc1)C(=O)N1CCc2ccccc21` (centres undefined), the Potency was inactive: > 76.9 µM.

As for `c1cncc(C(c2nnnn2C2CCCC2)N2CCCC2)c1` (centres undefined), the Potency was inactive: > 76.9 µM.

With `O=C(CSCc1n[nH]c(=O)[nH]1)NCCOc1cccc(Oc2ccccc2)c1`, the Potency was inactive: > 76.9 µM.

Consider `CC1CCCCN1CCCn1c(=S)[nH]c2ccccc2c1=O` (centres undefined), for which the Potency was inactive: > 76.9 µM.

`Cc1nnc(NC(=O)CSc2nnc(CCc3nc4ccccc4[nH]3)n2C)s1`: the Potency was inactive: > 76.9 µM.

In the case of `COc1ccc(CN(Cc2cccnc2)S(=O)(=O)c2ccc(-n3cnnn3)c(C)c2)cc1OC`, the Potency was inactive: > 76.9 µM.

Regarding `O=C(Nc1ccccc1)N1CCC(C(=O)N2CCN(S(=O)(=O)c3cccc(F)c3)CC2)CC1`, the Potency is inactive: > 76.9 µM.

Take `COc1ccc(Cl)cc1N1C(=O)[C@@H]2C(c3cccc(OC)c3OC)=NO[C@@H]2C1=O`: the Potency is inactive: > 76.9 µM.

For `C#CCN1C(=O)C(O)(CC(=O)c2cccc(OC)c2)c2ccccc21` (centres undefined), the Potency is inactive: > 76.9 µM.

For the molecule `COc1ccc(S(=O)(=O)NC(CC(=O)NCCc2ccc(OC)c(OC)c2)c2ccco2)cc1` (centres undefined), the Potency was inactive: > 76.9 µM.

Consider `CC(=O)c1ccc(S(=O)(=O)N(Cc2cc3cc4c(cc3[nH]c2=O)OCCO4)CC2CCCO2)cc1` (centres undefined), for which the Potency is inactive: > 76.9 µM.

As to `COc1ccc(C/C(O)=C(\C#N)c2nc3ccccc3s2)cc1`, the Potency is inactive: > 76.9 µM.

Regarding `CCc1ccc(NS(=O)(=O)c2ccc3[nH]cc(C(=O)N4CCCCC4)c(=O)c3c2)cc1`, the Potency is inactive: > 76.9 µM.

Turning to `CCOC(=O)C(CC)Sc1nc(-c2ccc(OC)cc2)nc2c1c(=O)n(C)c(=O)n2C` (centres undefined), the Potency is inactive: > 76.9 µM.

For the molecule `N#Cc1c2n(c(=O)[nH]c1=O)CCCCC2`, the Potency was inactive: > 76.9 µM.

Turning to `COC(=O)c1c(NC(=O)CN2CCC(C(N)=O)CC2)c2c(C)cccc2n1C`, the Potency is inactive: > 76.9 µM.

As to `CCOC(=O)c1c(CN(C)C)n(C)c2ccc(OC(C)=O)cc12`, the Potency was inactive: > 76.9 µM.

`CCCCn1c(SCC(=O)NCc2ccccc2)nc2ccc(N3CCOCC3)cc2c1=O`: the Potency is inactive: > 76.9 µM.

Consider `CCN1C2=C(C(=O)CCC2)C(c2ccc(O)cc2)C2=C1CCCC2=O`, for which the Potency was inactive: > 76.9 µM.

As for `O=S(=O)(Nc1ccc2c(c1)OCCO2)c1cnc[nH]1`, the Potency is inactive: > 76.9 µM.

For the molecule `CC(C)(C)NC(=O)C(c1ccco1)N(C(=O)c1ccc(CN2CCOCC2)o1)c1ccccc1` (centres undefined), the Potency is inactive: > 76.9 µM.

For `C=CCn1c(-c2ccccc2)c[nH]c1=S`, the Potency was inactive: > 76.9 µM.

As to `CCOc1ccc2c(c1)cc(CN(C(=O)CC)C1CCCCC1)c1nnnn12`, the Potency is inactive: > 76.9 µM.

As for `O=C(CSc1nnc(CNC(=O)c2c(F)cccc2Cl)o1)Nc1ccccc1`, the Potency was inactive: > 76.9 µM.

As to `COc1ccc(CCC(=O)Nc2nc3c(s2)CN(C)CC3)cc1OC`, the Potency is inactive: > 76.9 µM.

For the molecule `CCn1ccc(C(=O)Nc2ccc(S(=O)(=O)Nc3ccccc3OC)cc2)n1`, the Potency is inactive: > 76.9 µM.

Turning to `CCn1c(Cc2ccccc2)nnc1SCC(=O)Nc1ccc2c(c1)OCO2`, the Potency is inactive: > 76.9 µM.

`COc1cc2c(cc1OC)CN(C(=O)CC1CC3CCC1C3)CC2` (centres undefined): the Potency was inactive: > 76.9 µM.

As for `COc1cccc(NC(=O)N2CCC(C(=O)Nc3ccc(C)cc3C)CC2)c1`, the Potency was inactive: > 76.9 µM.

As for `O=C(NCC1CCCO1)C(C(=O)c1ccccc1)n1cc(Cl)ccc1=O` (centres undefined), the Potency is inactive: > 76.9 µM.

As to `CC(CN1CCCCC1)OC(=O)c1ccc(Cl)cc1` (centres undefined), the Potency is inactive: > 76.9 µM.

For the molecule `CCc1ccccc1NC(=O)N1C2CCCC1CC(NC(C)=O)C2` (centres undefined), the Potency was inactive: > 76.9 µM.

Consider `Cc1ccc(SCc2[nH]nc3c2C2(C(=O)N(C)c4ccccc42)C(C#N)=C(N)O3)cc1` (centres undefined), for which the Potency was inactive: > 76.9 µM.

As for `COc1ccc(-c2nc(NC(=O)C3CCN(c4nc5ccccc5o4)CC3)sc2C)cc1`, the Potency was inactive: > 76.9 µM.

`O=C(NCc1ccc(N2CCCC2=O)cc1)NC1CCCCC1`: the Potency is inactive: > 76.9 µM.

For the molecule `COc1ccc(OC)c(C2C(C#N)=C(N)Oc3c2c(C)nn3-c2ccc(C)cc2)c1` (centres undefined), the Potency is inactive: > 76.9 µM.

With `O=C(COc1ccc(C(=S)N2CCOCC2)cc1)N1CCCC1`, the Potency is inactive: > 76.9 µM.

Turning to `COc1ccc(-c2cc(C(F)(F)F)nc(SCCC(=O)NCc3ccco3)n2)cc1`, the Potency was inactive: > 76.9 µM.

With `O=C(NCC(=O)N(CCc1ccccc1)C(C(=O)NC1CCCC1)c1cccnc1)c1ccco1` (centres undefined), the Potency is inactive: > 76.9 µM.

On to `COc1ccc(CC(=O)Nc2cc(C)on2)cc1`, for which the Potency was inactive: > 76.9 µM.

In the case of `Cn1c2ccccc2c2nnc(SC3CCOC3=O)nc21` (centres undefined), the Potency is inactive: > 76.9 µM.

As for `CC1Cc2cc(/C(O)=C3\C(=O)C(=O)N(CCN(C)C)C3c3ccccc3F)ccc2O1` (centres undefined), the Potency was inactive: > 76.9 µM.

Consider `CNC(=O)c1ccc2nc(NC(C)=O)sc2c1`, for which the Potency is inactive: > 76.9 µM.

As to `Nc1ccc(S(=O)(=O)Nc2ccc(S(N)(=O)=O)cc2)cc1`, the Potency is inactive: > 76.9 µM.

In the case of `CC(C)CC(c1nnnn1CC1CCCO1)N1CCN(Cc2ccc3c(c2)OCO3)CC1` (centres undefined), the Potency is inactive: > 76.9 µM.

`COC(=O)c1[nH]c2ccccc2c1NC(=O)CN1CCCc2ccccc21`: the Potency was inactive: > 76.9 µM.

Turning to `CCN(CC)S(=O)(=O)c1ccc(NC(=O)c2cccc3c2C(=O)N(CCOC)C3)cc1`, the Potency is inactive: > 76.9 µM.

For the molecule `CCCn1cc2c(c1-c1cccc(C)c1)c(=O)n(C)c(=O)n2C`, the Potency is inactive: > 76.9 µM.

In the case of `CCCc1nc(Nc2nc3ccccc3o2)nc(C)c1C(=O)OCC`, the Potency was inactive: > 76.9 µM.

As to `S=c1[nH]nc(-c2ccc3ccccc3n2)o1`, the Potency was inactive: > 76.9 µM.

With `O=C(Cc1ccccc1)N1CCN(C(=O)c2cccs2)CC1`, the Potency was inactive: > 76.9 µM.

Regarding `C/C=C/c1ccc(OCCCNCC(C)O)c(OC)c1` (centres undefined), the Potency was inactive: > 76.9 µM.

Consider `Cc1nccn1-c1ccc(C(F)(F)F)cc1NC=O`, for which the Potency was inactive: > 76.9 µM.

For the molecule `COc1ccc(C(=O)Nc2ccccc2-c2nnn(CC(=O)NCc3ccco3)n2)cc1`, the Potency is inactive: > 76.9 µM.

`CC(=NCc1ccco1)c1c(O)n(C2CCCCC2)c(=O)[nH]c1=O`: the Potency is inactive: > 76.9 µM.

As for `CS(=O)(=O)N(CC(=O)Nc1ccc2c(c1)OCO2)c1ccccc1`, the Potency was inactive: > 76.9 µM.

Regarding `Cc1sc(C(=O)NCc2cccnc2)c2nc(C)n(CC(=O)NCc3cccnc3)c(=O)c12`, the Potency is inactive: > 76.9 µM.
